From article PMC10726135 come the findings set out here.

The other results are listed elsewhere or left out. At the low end of the ranking the order means little. The protein was read in a cell extract, so binding may be indirect.

This test concerns the target T1, HNF4alpha2 (COS-7 nuclear extract) (UniProt P41235).
T1 sequence: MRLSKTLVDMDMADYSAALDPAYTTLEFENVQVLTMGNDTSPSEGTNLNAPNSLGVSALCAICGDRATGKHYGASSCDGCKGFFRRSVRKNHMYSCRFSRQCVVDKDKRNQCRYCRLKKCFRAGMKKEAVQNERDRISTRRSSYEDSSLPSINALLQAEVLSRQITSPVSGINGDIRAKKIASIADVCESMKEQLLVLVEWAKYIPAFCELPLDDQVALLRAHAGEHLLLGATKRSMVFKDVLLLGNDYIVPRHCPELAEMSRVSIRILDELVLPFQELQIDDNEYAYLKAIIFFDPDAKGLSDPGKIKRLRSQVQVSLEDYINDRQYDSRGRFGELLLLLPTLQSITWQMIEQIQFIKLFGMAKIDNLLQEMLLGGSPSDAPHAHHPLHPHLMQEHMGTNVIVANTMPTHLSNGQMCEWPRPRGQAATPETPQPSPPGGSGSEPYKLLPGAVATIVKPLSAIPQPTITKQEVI
Put plainly: protein-binding microarray. The following applies: COS-7 nuclear extract on double-stranded Agilent 4x180k PBM; binding buffer, salt, pH and temperature not given; high values mean tight binding; double strand, one strand shown; sequences stand for … in …GCCTAGGGAGATTAGAGTATCGGTCGA
As to AAAGAAGAATGTGGCCATTTTACTTGTCAA, the binding signal (log2 normalized intensity) is -1.08. On to ACTCACTAGCATTAGGACCTGTTTGTCTTG, for which the binding signal (log2 normalized intensity) is 1.26. The result for GCTTCTGCCCCAGACACGCTTGACTGGCTC reads -1.11; that for ACCAGGGGTCATTTTATGGGAAAACAGAAT, 0.785; that for ATAACATGAGGATACTGATAACATGAGGTA, -0.454. For the sequence ACAGACTCTGGGAGATAAAGCAGAGGGCTG, the binding signal (log2 normalized intensity) is -1.14. Take AGAGCAATCTCTCATCTGCCTTGTGATTTC: the binding signal (log2 normalized intensity) is 0.307.

With CAGCCACGCTCCTCTTATCATTAGATTCCA, the binding signal (log2 normalized intensity) is -1.2. For AGGAGATGTGGTGGACTTTAACGACCTTTG, the binding signal (log2 normalized intensity) worked out at 4.66. TATCTGTAAAATGGACATAGTAACAACCTA: the binding signal (log2 normalized intensity) was -1.06.

Regarding CACAGTGTAGAAGGCAAGGGTCAAGATGTC, the binding signal (log2 normalized intensity) turned out to be 1.8.

Take AGAGAATAGCTCAGGTCCAAGGAACCTCAC: the binding signal (log2 normalized intensity) was -1.14. As to TTCGGTGCTGACCTTTGTTCACATTTGTGC, the binding signal (log2 normalized intensity) is 5.06. With GAGAAGTGAACTTTGCCCTCTCTTTCTGGA, the binding signal (log2 normalized intensity) was determined as 7.55. On to CAGATGTTTCTGCAAGCACACTGTCCTGCT, for which the binding signal (log2 normalized intensity) is -0.824. As to GAACTGAAAGAGACCTTTGACATCACCTAA, the binding signal (log2 normalized intensity) stood at 2.04. Consider GATCGATCACACAGACAGACATTCAGAAAC, for which the binding signal (log2 normalized intensity) was -1.09. Turning to GCTTGTCGAGGACAGGATGGGGGTGGGAGG, the binding signal (log2 normalized intensity) was -1.13.

For the sequence CTAGGCAGCATAGGGCCACTTTGTCCTTCA, the binding signal (log2 normalized intensity) was -0.256.

TCAGGAGAGGAGGCCCACACCCCTGGGGAA: the binding signal (log2 normalized intensity) is -1.17.

Consider GCTAGAGATTCTCCCTGGGGCCTCTGAAGT, for which the binding signal (log2 normalized intensity) was -1.21. In the case of TCCGAACGCCAGCAGCAGGGTCAGAAGGGA it was -1.21. Take ACAGTGACGTTCTGCCCCTTATCTTCTGGC: the binding signal (log2 normalized intensity) is 2.09. On to CTCAATCGCCTTTTATTTTTCCCCTGAAAT, for which the binding signal (log2 normalized intensity) was found to be 2.47. The result for CCTCACAATCTTAAGATAAGGTCTTTCTGA reads 0.361; that for GTCAGGCAGAGAGGGACTCTGACCCAGGAG, 2.26; that for TGGCATTCCAGGATGAAGGAAGAGGGAAGA, -1.05. On to GTCCAAGGACTCAATGATACCATCAGATAC, for which the binding signal (log2 normalized intensity) was -1.2. For TCTGTCCTGAGATGTCTGCTTCTTGGGTCA, the binding signal (log2 normalized intensity) is 2.03. As for CCATCCCCCAATACACACACACCCCTCCAC, the binding signal (log2 normalized intensity) is 6.43. Consider AGGGTTAAGCTCATGCTTTCATCTCCCCAA, for which the binding signal (log2 normalized intensity) stood at 2.09. For CCGCGATTAAAAATGGAACAGTAAGTGTTA, the binding signal (log2 normalized intensity) stood at 1.2. As for TGTCAAAGGGAGAAAGACATGTTTCTAACT, the binding signal (log2 normalized intensity) is -1.01. Consider ATACAAGTCGTAAAGACCTTGCTGATTACA, for which the binding signal (log2 normalized intensity) is -1.21. Consider CAAGCCCTCTAACTATGCAGTGTCCATGGT, for which the binding signal (log2 normalized intensity) was determined as 1.39. In the case of GTCTGAGCACATCACACAGGCATATTTGGT it was -0.509. Regarding TCTGCTTGCAACCAAAGGAGTCCTGGCTGA, the binding signal (log2 normalized intensity) was -1.23. In the case of GGTGGGCAGAGGCCTGATGGTGAGTTCTGT, the binding signal (log2 normalized intensity) was -0.779. As to ATTTGGACTTTTTGTAGTTTCAGCTTCTTC, the binding signal (log2 normalized intensity) was 1.54. Consider CGGTGCATTTTTTTCCACCCTCCCCTCCCC, for which the binding signal (log2 normalized intensity) is 5.05. The result for TTGACCTTTATACCTGTACGTTACTCTGTA reads 3.65; that for AACCCTGGCTGGAGTTGCTGAAATTCCCAC, -0.732; that for AAATTGATCTAGATAAGTTAGTTTACTTAG, 0.0866. As to CACTGGGCTGATGACCTTTGACTGAGATGG, the binding signal (log2 normalized intensity) came to 5.32. For TGTGGTTGACAGGCAACAATTTGAGGGGTC, the binding signal (log2 normalized intensity) is 1.69.

Consider CTCCATCCCTCATCTGTCATTCCCTCACTC, for which the binding signal (log2 normalized intensity) turned out to be 0.287.

For TGGAACGGGGGCAAGGGTCAGAGTAAAGCT, the binding signal (log2 normalized intensity) was determined as 3.23. As to ACTTTCCAGTCTAGGTCTGGAAGGAAGGAG, the binding signal (log2 normalized intensity) was -1.18. Regarding GTAGGTACGTTTGTGATACACCTTGCCTGG, the binding signal (log2 normalized intensity) was determined as 0.423.

ATAATCAGAGGCCTGATTATCAGGTGCCTG: the binding signal (log2 normalized intensity) is -1.13.

ACCTTGATGCTGGACTTCAGCCTCCAGAAC: the binding signal (log2 normalized intensity) came out at 3.67. Regarding AGGCCGGAAAAGATTAGATTGCTCAGAGGC, the binding signal (log2 normalized intensity) was -0.849. In the case of GACACAAAGAGACAAAGCTTTGAAGATGCT it was -1.11.

On to ACACTTGTATGACCTTTGTTTTATTGTCAT, for which the binding signal (log2 normalized intensity) came out at 3.64. As for ATGTGCTTCATGGAGAGAATTCCCATCCCA, the binding signal (log2 normalized intensity) is -1.04. TGATAAAGGGGGCAAAGGGCATGGGCAGCT: the binding signal (log2 normalized intensity) amounted to 3.81.

On to GGTCCCTAGGAGATACGCCTGAACTTTGAT, for which the binding signal (log2 normalized intensity) is 3.61. TCTTTAGGCCAAACAAAAATATGGACTTTG: the binding signal (log2 normalized intensity) was 5.84. As for GTAGGACAGAGTAAAGCCACTGCCTAGATA, the binding signal (log2 normalized intensity) was -0.984. On to GTGTGGTGCAGATTCCACACTGGCTAGATA, for which the binding signal (log2 normalized intensity) was -1.19. For the sequence AGGGGGCGGGCGGACTCCGAGCCATTTTGG, the binding signal (log2 normalized intensity) is -1.14. For GGGAGGAGGGCAACCTTTGAACTGGGTCTT, the binding signal (log2 normalized intensity) was 4.09. The result for TCTAAGCCCTTATCAAAAAGATAAGGACAC reads -1.12. As to TACGCTGTCGTTTGCTTAGTCTTATCTGAG, the binding signal (log2 normalized intensity) was 0.476.

For GAAACACTCTGTTTGTAAAGTCTACAAGTG, the binding signal (log2 normalized intensity) was found to be 1.09.

As for AAAGATACTCTCATCACTTAGGATATTCCA, the binding signal (log2 normalized intensity) is -1.16.

Turning to GACCTTTATGGGAAAAAAAAACCACTGTGT, the binding signal (log2 normalized intensity) is 0.868. For GTCTTGCTTTGATGTTGATGGTTGCTGACT, the binding signal (log2 normalized intensity) stood at 2.03. The result for GATTTCATCTAAGGACAAACTTTGTCACTG reads 1.15; that for ACCTGTTATTTGCGCCTCCCTAGAGCAGCA, -1.11; that for ATTTGAGGGTGACACTGCTCTCTCCAGGGG, -0.738. Take AAGGCTAGTCTTCTTTGGGGCTTAGATAGC: the binding signal (log2 normalized intensity) stood at 0.431.
